In all, about 310,000 compounds went through this assay and about 14,000 (4.5%) showed an effect of 50% or more. The effect is printed as a negative number. Some of the results follow.
Biological target: human ether-à-go-go-related gene (hERG) potassium channel (human, UniProt Q12809)
Experiment: primary screen, population patch clamp on CHO cells stably expressing hERG
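Further: peak tail current of the secondary pulse compared with the same well before compound.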

human ether-à-go-go-related gene (hERG) potassium channel, sequence (Q12809 whole entry, looked up): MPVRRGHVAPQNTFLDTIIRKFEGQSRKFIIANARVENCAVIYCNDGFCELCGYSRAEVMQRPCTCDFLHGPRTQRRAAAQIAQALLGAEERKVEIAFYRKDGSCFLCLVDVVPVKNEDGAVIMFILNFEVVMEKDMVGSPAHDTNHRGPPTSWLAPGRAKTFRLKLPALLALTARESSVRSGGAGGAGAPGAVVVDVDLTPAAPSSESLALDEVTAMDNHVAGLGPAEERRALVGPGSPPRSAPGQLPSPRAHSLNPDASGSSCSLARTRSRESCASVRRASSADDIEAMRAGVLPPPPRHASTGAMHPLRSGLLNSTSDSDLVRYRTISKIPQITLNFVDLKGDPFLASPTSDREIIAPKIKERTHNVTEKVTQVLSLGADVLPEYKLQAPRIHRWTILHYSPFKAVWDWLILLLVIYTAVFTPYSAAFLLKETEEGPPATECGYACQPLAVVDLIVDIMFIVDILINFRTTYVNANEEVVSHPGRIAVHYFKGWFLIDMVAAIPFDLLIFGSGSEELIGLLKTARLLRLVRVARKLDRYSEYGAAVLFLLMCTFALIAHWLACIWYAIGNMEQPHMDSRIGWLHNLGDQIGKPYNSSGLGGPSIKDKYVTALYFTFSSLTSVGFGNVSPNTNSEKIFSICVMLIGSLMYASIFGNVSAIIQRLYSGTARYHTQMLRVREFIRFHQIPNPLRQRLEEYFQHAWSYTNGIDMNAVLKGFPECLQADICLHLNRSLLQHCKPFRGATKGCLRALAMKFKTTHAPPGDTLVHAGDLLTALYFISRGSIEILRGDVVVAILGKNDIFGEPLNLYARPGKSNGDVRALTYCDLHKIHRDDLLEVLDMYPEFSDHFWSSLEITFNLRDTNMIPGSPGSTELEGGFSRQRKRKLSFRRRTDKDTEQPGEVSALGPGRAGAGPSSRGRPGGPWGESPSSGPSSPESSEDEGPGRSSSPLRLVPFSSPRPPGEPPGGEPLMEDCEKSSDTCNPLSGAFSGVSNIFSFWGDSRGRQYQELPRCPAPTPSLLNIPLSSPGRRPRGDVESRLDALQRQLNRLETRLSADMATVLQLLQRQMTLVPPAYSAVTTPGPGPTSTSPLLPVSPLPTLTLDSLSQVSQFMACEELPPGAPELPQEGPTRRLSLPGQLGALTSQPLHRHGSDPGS

Compound | hERG current change (%, negative = inhibition) at 10uM
Cc1cccc(Cn2c(N3CCCCC3C)nc3c2c(=O)[nH]c(=O)n3C)c1 (stereo not drawn) | -57%
CCCCOc1c(C(=O)Nc2ccccc2)nnn1-c1ccccc1 | 10.7%
CCC12CN3CCN(CC(C3)/C1=N\NC(=O)c1ccc(F)cc1)C2 | 13.4%
CC(C)c1ccc(C2(O)C(=O)Nc3cc(Br)ccc32)c(O)c1 (stereo not drawn) | 20.1%
O=C(NCCCN1CCCCC1)c1ccc(CS(=O)c2ccc(F)cc2)o1 (stereo not drawn) | -0.35%
CC(C)c1ccc(Cc2nnc(NCCCO)[nH]c2=O)cc1 | 12.8%
CNC(=S)N1CCn2cccc2C1c1cccnc1 (stereo not drawn) | 6.45%
COc1ccc(C(=O)NC23CC4CC(CC(C4)C2)C3)cc1OC | 17.4%
C=CCOC(=O)C1=C[C@@H](c2ccc3c(c2)OCO3)C[C@@H](OCc2ccc(CO)cc2)O1 | 5.22%
COc1cc2cc(CN(CCO)C(=O)c3cccs3)c(=O)[nH]c2cc1OC | -1.16%
Cc1cccc(C)c1NC(=O)C1CCCN1S(=O)(=O)c1ccccc1 (stereo not drawn) | 4.4%
CC(C)CNC(=S)NC(=O)c1csc([N+](=O)[O-])c1 | 9.85%
CC(=O)Nc1cnn(Cc2ccc(Br)cc2)c1 | 5.7%
CCOC(=O)C1CCN(C(=O)COc2ccc3c(c2)OCO3)CC1 | 1.91%
COc1ccccc1Nc1nc(N)nc(CN2CCCCC2)n1 | -54.9%
NS(=O)(=O)c1ccc(NNC(=O)c2ccc(F)cc2F)cc1 | 10.8%
O=C1C2C3C=CC(C3)C2C(=O)N1CCCCCCN1C(=O)C2C3C=CC(C3)C2C1=O (stereo not drawn) | 21.2%
O=C(COc1cc(Cl)c(Cl)cc1Cl)Nn1cnnc1 | -5.37%
Cc1cccc(NC(=O)c2ccccc2NC(=O)C2CCCCC2)c1C | 1.16%
O=C(c1ccc(Cl)cc1)N1CCC(O)(CSc2ccccc2)CC1 | -38.1%
CC1CCN(C(=O)Cn2c3ccc(F)cc3c3nc4n(c(=O)c32)CCCS4)CC1 | 11.1%
CC(C)Sc1cc(N2CCCC2)nc(-c2ccccc2Cl)n1 | 5.42%
O=C1C2CCc3ccccc3C2N1c1ccccc1 (stereo not drawn) | -1.68%

Compound | hERG current change (%, negative = inhibition) at 10uM
Cc1ccc(C)c(N2C(=O)c3cc(N4CCOCC4)c([N+](=O)[O-])cc3C2=O)c1 | 6.65%
CCOc1ccc(NC(=O)c2c(O)[nH]c(=O)[nH]c2=O)cc1 | 7.25%
O=C(CCCCC(=O)NC1CCCC1)NC1CCCC1 | 5.31%
CCN(CC)CCCCCC(=O)Nc1ccccc1C(=O)Nc1ccccc1 | -55.8%
CC(=O)CC1(OC(C)=O)C(=O)N(C)c2ccccc21 (stereo not drawn) | 1.45%
CCOC(=O)N1CCN(S(=O)(=O)c2ccc(C(=O)Nc3nnc(CC)o3)cc2)CC1 | 2.69%
COC(=O)c1c(NC(=O)CN2CCN(c3ccccc3OC)CC2)c2cc(C)ccc2n1C | 7.82%
Cc1ccc(-c2cc(-c3ccccc3)no2)c(O)c1 | 17.4%
C=CCN(Cc1cn(C)nc1-c1cccc(Cl)c1)C1CCS(=O)(=O)C1 (stereo not drawn) | 6.11%
COc1ccc(-c2cc3c(=O)n(CC(=O)NCc4ccccc4F)ncn3n2)cc1 | 18.8%
CCOC(=O)C1(CCOc2ccccc2)CCN(Cc2ccc(NC(C)=O)cc2)CC1 | -79.3%
Cc1ccc(CN(N=Nc2nonc2N)c2nonc2N)c(C)c1 | 9.68%
Cc1cc2c(c(=O)o1)C(c1cccs1)C(C#N)=C(N)O2 (stereo not drawn) | 4%
COc1ccccc1-n1c(C)c2c(OC)cccc(=O)c2c1C | -8.43%
Nc1n[nH]c(=S)n1-c1ccc(Cl)cc1 | 19.3%
C[C@@]12C(=O)N(CCc3c[nH]c4ccccc34)CC(=O)N1[C@H]1c3ccccc3OC[C@@H]1[C@@H]2c1ccccc1 | -0.34%
Cc1ccc(C(=O)Oc2ccc(-c3nnco3)cc2)o1 | 0.0336%
CCCC[C@@H]1CNC(=S)N1CCc1cccc2ccccc12 | 2%
COc1nccnc1NS(=O)(=O)c1ccc(N/C=C2\CCCCC2=O)cc1 | 16.6%
CCc1ccc(C2=NN(CCC(=O)NCC3CCCO3)C(=O)CC2)cc1 (stereo not drawn) | 12.8%
Cc1nc(N2CCN(S(=O)(=O)c3ccc(F)cc3)CC2)c2c(C)c(C)sc2n1 | -6.58%
COC(=O)c1sccc1NC(=O)Nc1ccc(OC)c(OC)c1 | -40.7%
COc1ccc(S(=O)(=O)N2CC(C)N(C(=O)N(C)C)C2C(C)C)cc1 (stereo not drawn) | 21.3%

Compound | hERG current change (%, negative = inhibition) at 10uM
COc1ccc(C(=O)COC(=O)CNC(=O)c2ccc(OC)cc2)cc1 | -52.6%
COc1cc(Br)cc(/C=C/c2ccc3cccc(O)c3n2)c1OC | 11.4%
c1csc(-c2csc3nc(CN4CCOCC4)nc(NCc4ccc5c(c4)OCO5)c23)c1 | -21.5%
Cc1cc(C(C)(C)C)cc(C)c1CC1=NCCN1.Cl | -7.46%
Cc1cccc(OCC(=O)N(Cc2ccc(N(C)C)cc2)C2CCS(=O)(=O)C2)c1 (stereo not drawn) | 3.86%
COc1ccc(NS(=O)(=O)c2ccc(Cl)s2)cn1 | 7.99%
Cc1[nH]c(=O)[nH]c(=O)c1S(=O)(=O)N1CCC(C(=O)N2CCN(c3cccc(C(F)(F)F)c3)CC2)CC1 | 31.2%
CCOC(=O)N1CCN(C(=O)N2CCOCC2)CC1 | -12.6%
CCc1nnc(NC(=O)CSc2nnc(-c3ccccc3O)n2-c2ccc(C)cc2C)s1 | 7.78%
Nc1nc(-c2ccc(-n3nncc3-c3ccco3)cc2)cs1 | -4.01%
CSc1nc2ncc(C(=O)O)c(N)n2n1 | 8.85%
COc1ccc(C(=O)CSc2nc(N)nc(SC)c2C#N)cc1 | -3%
COc1cc(OC)cc(C(=O)NCC2CCCN(C(=O)c3csc(C(C)C)n3)C2)c1 (stereo not drawn) | -3.67%
CCc1ccc(C(=O)OCC(=O)Nc2cccc(S(=O)(=O)NC3=NCCCCC3)c2)cc1 | -13.1%
C=CCN(C(=O)CCS(=O)(=O)c1cccc2nsnc12)c1ccccc1 | -11.5%
Nc1c(N2CCCCC2)c2ccccc2oc1=O | -7.42%
O=C(COC(=O)C1=COCCO1)Nc1ccc(OC(F)F)cc1 | -1.13%
COC(=O)C1=CN(c2cc(C)cc(C)c2)C=C(C(=O)OC)C1c1ccc(OC)c(O)c1 | 10.9%
COc1cccc(C(=O)NCC(c2cccs2)N2CCOCC2)c1 (stereo not drawn) | -1.76%
O=C(CN(Cc1ccc(Cl)cc1)C(=O)c1csnn1)NCc1ccc(F)cc1 | -66.6%
Cc1cccc(C(=O)N2CCCC(Nc3ccc(C(C)C)cc3)C2)n1 (stereo not drawn) | 0.95%
CN(C)/C=C(\C#N)C(=O)c1cccc(Oc2ccc(Br)cc2)c1 | -28%
COc1ccc(NC(=O)N2CCOCC2)cc1 | 18.4%

Compound | hERG current change (%, negative = inhibition) at 10uM
COc1ccc(CNc2ccc(C)cc2)cc1Br | 14.4%
COc1ccc(-c2noc(CN(C(=O)c3cccs3)C(C)C)n2)cc1 | -28.6%
CN1CCN(S(=O)(=O)c2ccc(NC(=O)c3cccc(S(=O)(=O)N4CCCC4)c3)cc2)CC1 | -3.81%
O=C(CCNC(=O)c1ccccc1Cl)Nc1cc(S(=O)(=O)N2CCOCC2)ccc1N1CCOCC1 | -27.3%
C=CCOc1ccc(/C=C2\SC(=S)N(NS(=O)(=O)c3ccc(C)cc3)C2=O)cc1 | -3.29%
CN1C(=O)c2cccc3c(S(=O)(=O)Nc4ccccc4F)ccc1c23 | -4.24%
COCCNC(=O)c1cc(-c2cccc(OC)c2)on1 | 16.6%
Cc1cccc(COCC(Cc2ccccc2)N2CCN(C(=O)c3ccc(C(F)(F)F)cc3)CCC2=O)c1 (stereo not drawn) | -13.1%
Cc1ccc(C(=O)NC2CCCc3c2cnn3-c2ccc(F)cc2F)cn1 (stereo not drawn) | 7.46%
Cc1ccc(S(=O)(=O)N2CCOCC2)cc1C(=O)NCC1CCCCC1 | -4.28%
COc1ccc(C(C)NC(=S)NCc2ccc(F)cc2)cc1 (stereo not drawn) | 0.1%
O=C(NNC(=O)c1cc2c(s1)CCCC2)c1ccccc1 | 5.28%
C=CCOc1cccc(C(=O)N2CCCC(Nc3ccc4c(c3)OCCO4)C2)c1 (stereo not drawn) | -1.22%
COc1cccc(CN(C)C(=O)Nc2cccc(C(F)(F)F)c2)c1OC | -4.73%
c1ccc2c(c1)Cc1cc(CN3CCOCC3)ccc1-2 | -7.2%
C/C(=N\NC(=O)COc1ccc(C(C)(C)C)cc1)c1ccccc1 | 19.6%
O=C(COc1ccccc1Cl)NNC(=O)c1ccc(-n2cncn2)c([N+](=O)[O-])c1 | 10.9%
Cc1cccc(NC(=S)N(CCN(C)C)Cc2cccs2)c1 | -25.8%
CC(C)(C)SCCNS(=O)(=O)c1ccc2ccccc2c1 | -16.7%
CCOc1ccc(-n2c(O)c(/C=N/NC(=O)C3COc4ccccc4O3)c3ccccc3c2=O)cc1 (stereo not drawn) | 2.95%
O=C(NCc1ccccn1)C1CCCN(S(=O)(=O)c2cccc3nsnc23)C1 (stereo not drawn) | 7%
